{"source": "patent US12583836B2", "about": "(Anaxis Pharma Pty Ltd, priority 2020, dated 2026)", "key": {"RIP1": {"target": "T1, RIP1 (Homo sapiens, UniProt Q13546)", "T1 construct": "purchased DiscoverX (KINOMEscan service); host or cells: E. coli BL21-derived (T7 phage) or HEK293", "T1 sequence (Q13546 1-671)": "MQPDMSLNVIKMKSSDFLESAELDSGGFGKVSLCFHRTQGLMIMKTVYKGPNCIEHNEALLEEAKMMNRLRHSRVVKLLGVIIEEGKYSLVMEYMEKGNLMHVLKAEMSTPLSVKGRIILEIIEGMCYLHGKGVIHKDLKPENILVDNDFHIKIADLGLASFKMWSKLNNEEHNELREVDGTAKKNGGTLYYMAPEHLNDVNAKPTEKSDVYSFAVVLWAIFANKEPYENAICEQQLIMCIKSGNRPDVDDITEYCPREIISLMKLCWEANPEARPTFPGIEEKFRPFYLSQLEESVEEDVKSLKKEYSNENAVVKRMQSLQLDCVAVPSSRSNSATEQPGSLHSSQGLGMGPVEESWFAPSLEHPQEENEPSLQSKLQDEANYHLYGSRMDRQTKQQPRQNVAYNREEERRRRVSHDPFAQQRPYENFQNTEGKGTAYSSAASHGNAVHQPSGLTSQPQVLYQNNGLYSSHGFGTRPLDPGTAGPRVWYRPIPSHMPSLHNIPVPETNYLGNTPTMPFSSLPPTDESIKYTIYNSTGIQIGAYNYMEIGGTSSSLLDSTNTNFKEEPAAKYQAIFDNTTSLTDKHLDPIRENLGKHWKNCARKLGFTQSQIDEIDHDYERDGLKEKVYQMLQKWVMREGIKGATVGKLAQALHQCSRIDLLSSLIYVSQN", "assay": "KINOMEscan binding assay, RIP1", "settings": "equilibrium dissociation constant, class symbols"}, "RIP3": {"target": "T2, RIP3 (Homo sapiens, UniProt Q9Y572)", "T2 construct": "purchased DiscoverX (KINOMEscan service); host or cells: E. coli BL21-derived (T7 phage) or HEK293", "T2 sequence (Q9Y572 whole entry)": "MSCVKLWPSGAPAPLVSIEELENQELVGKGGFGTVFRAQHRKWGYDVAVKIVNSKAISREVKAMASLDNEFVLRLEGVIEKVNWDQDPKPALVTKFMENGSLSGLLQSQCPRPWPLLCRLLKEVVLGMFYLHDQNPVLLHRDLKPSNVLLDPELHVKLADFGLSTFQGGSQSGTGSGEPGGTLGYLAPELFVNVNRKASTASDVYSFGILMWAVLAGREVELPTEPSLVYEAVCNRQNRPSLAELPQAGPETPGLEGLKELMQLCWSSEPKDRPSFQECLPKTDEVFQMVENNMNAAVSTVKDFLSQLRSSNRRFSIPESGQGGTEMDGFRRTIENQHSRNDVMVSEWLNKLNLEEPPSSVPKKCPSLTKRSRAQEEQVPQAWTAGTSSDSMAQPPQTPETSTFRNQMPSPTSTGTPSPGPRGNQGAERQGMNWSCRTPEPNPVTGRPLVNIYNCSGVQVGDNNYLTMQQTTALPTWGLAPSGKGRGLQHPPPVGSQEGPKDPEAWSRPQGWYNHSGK", "assay": "KINOMEscan binding assay, RIP3", "settings": "equilibrium dissociation constant, class symbols", "from_the_text": "The Hill Slope was set to −1."}}, "data": [{"smiles": "COCCOc1cc(Nc2[nH]nc(-c3ccc(NS(=O)(=O)CCN(C)C)cc3)c2C(N)=O)ccn1", "note": "[Compound 116, 3-(4-((2-(dimethylamino)ethyl)sulfonamido)phenyl)-5-((2-(2-methoxyethoxy)pyridin-4-yl)amino)-1H-pyrazole-4-carboxamide]", "values": [{"measurement": "Kd", "setting": "RIP1", "value": "> 30", "unit": "µM"}, {"measurement": "Kd", "setting": "RIP3", "value": "> 30", "unit": "µM"}]}, {"smiles": "COCCOc1cc(Nc2[nH]nc(-c3ccc(NS(=O)(=O)CCOC)cc3)c2C(N)=O)ccn1", "note": "[Compound 120, 5-((2-(2-methoxyethoxy)pyridin-4-yl)amino)-3-(4-((2-methoxyethyl)sulfonamido)phenyl)-1H-pyrazole-4-carboxamide]", "values": [{"measurement": "Kd", "setting": "RIP1", "value": "> 30", "unit": "µM"}, {"measurement": "Kd", "setting": "RIP3", "value": "> 30", "unit": "µM"}]}, {"smiles": "CCS(=O)(=O)Nc1ccc(-c2n[nH]c(Nc3ccnc(C)n3)c2C(N)=O)cc1", "note": "[Compound 125, 3-(4-(ethylsulfonamido)phenyl)-5-((2-methylpyrimidin-4-yl)amino)-1H-pyrazole-4-carboxamide]", "values": [{"measurement": "Kd", "setting": "RIP1", "value": "> 30", "unit": "µM"}, {"measurement": "Kd", "setting": "RIP3", "value": "> 30", "unit": "µM"}]}, {"smiles": "NC(=O)c1c(-c2ccc(NS(=O)(=O)CCc3ccccc3)cc2)n[nH]c1Nc1ccccn1", "note": "[Compound 130, 3-(4-((2-phenylethyl)sulfonamido)phenyl)-5-(pyridin-2-ylamino)-1H-pyrazole-4-carboxamide]", "values": [{"measurement": "Kd", "setting": "RIP1", "value": "> 30", "unit": "µM"}, {"measurement": "Kd", "setting": "RIP3", "value": "1 to 30", "unit": "µM"}]}, {"smiles": "NC(=O)c1c(-c2ccc(NS(=O)(=O)c3ccccc3)cc2)n[nH]c1Nc1ccccn1", "note": "[Compound 133, 3-(4-(phenylsulfonamido)phenyl)-5-(pyridin-2-ylamino)-1H-pyrazole-4-carboxamide]", "values": [{"measurement": "Kd", "setting": "RIP1", "value": "> 30", "unit": "µM"}, {"measurement": "Kd", "setting": "RIP3", "value": "1 to 30", "unit": "µM"}]}, {"smiles": "CCS(=O)(=O)Nc1ccc(-c2n[nH]c(Nc3ccc4ccc(Cl)cc4n3)c2C(N)=O)cc1OCc1ccc(F)cc1", "note": "[Compound 138, 5-((7-chloroquinolin-2-yl)amino)-3-(4-(ethylsulfonamido)-3-((4-fluorobenzyl)oxy)phenyl)-1H-pyrazole-4-carboxamide]", "values": [{"measurement": "Kd", "setting": "RIP1", "value": "> 30", "unit": "µM"}, {"measurement": "Kd", "setting": "RIP3", "value": "> 30", "unit": "µM"}]}, {"smiles": "NC(=O)c1c(-c2ccc(NS(=O)(=O)C(F)F)cc2)n[nH]c1Nc1ccc(C(F)(F)F)cn1", "note": "[Compound 145, 3-(4-((difluoromethyl)sulfonamido)phenyl)-5-((5-(trifluoromethyl)pyridine-2-yl)amino)-1H-pyrazole-4-carboxamide]", "values": [{"measurement": "Kd", "setting": "RIP1", "value": "> 30", "unit": "µM"}, {"measurement": "Kd", "setting": "RIP3", "value": "> 30", "unit": "µM"}]}, {"smiles": "CCS(=O)(=O)Nc1ccc(-c2n[nH]c(Nc3cccc(C(F)(F)F)n3)c2C(N)=O)cc1Oc1ccc(F)cc1", "note": "[Compound 149, 3-(4-(ethylsulfonamido)-3-(4-fluorophenoxy)phenyl)-5-((6-(trifluoromethyl)pyridine-2-yl)amino)-1H-pyrazole-4-carboxamide]", "values": [{"measurement": "Kd", "setting": "RIP1", "value": "> 30", "unit": "µM"}, {"measurement": "Kd", "setting": "RIP3", "value": "> 30", "unit": "µM"}]}, {"smiles": "NC(=O)c1c(-c2ccc(NS(=O)(=O)CC(F)(F)F)c(Oc3ccc(Cl)cc3)c2)n[nH]c1Nc1cnccn1", "note": "[Compound 168, 3-(3-(4-chlorophenoxy)-4-((2,2,2-trifluoroethyl)sulfonamido)phenyl)-5-(pyrazin-2-ylamino)-1H-pyrazole-4-carboxamide]", "values": [{"measurement": "Kd", "setting": "RIP1", "value": "> 30", "unit": "µM"}, {"measurement": "Kd", "setting": "RIP3", "value": "> 30", "unit": "µM"}]}, {"smiles": "NC(=O)c1c(-c2ccc(NS(=O)(=O)CC(F)(F)F)c(OCc3ccc(F)cc3)c2)n[nH]c1Nc1cccc(C(F)F)n1", "note": "[Compound 173, 5-((6-(difluoromethyl)pyridine-2-yl)amino)-3-(3-((4-fluorobenzyl)oxy)-4-((2,2,2-trifluoroethyl)sulfonamido)phenyl)-1H-pyrazole-4-carboxamide]", "values": [{"measurement": "Kd", "setting": "RIP1", "value": "> 30", "unit": "µM"}, {"measurement": "Kd", "setting": "RIP3", "value": "> 30", "unit": "µM"}]}, {"smiles": "NC(=O)c1c(-c2ccc(NS(=O)(=O)C(F)F)c(Oc3ccc(F)cc3)c2)n[nH]c1Nc1cnccn1", "note": "[Compound 177, 3-(4-((difluoromethyl)sulfonamido)-3-(4-fluorophenoxy)phenyl)-5-(pyrazin-2-ylamino)-1H-pyrazole-4-carboxamide]", "values": [{"measurement": "Kd", "setting": "RIP1", "value": "> 30", "unit": "µM"}, {"measurement": "Kd", "setting": "RIP3", "value": "> 30", "unit": "µM"}]}, {"smiles": "CCS(=O)(=O)Nc1ccc(-c2n[nH]c(Nc3cccc(C(F)F)n3)c2C(N)=O)cc1OCc1ccc(F)cc1", "note": "[Compound 179, 5-((6-(difluoromethyl)pyridine-2-yl)amino)-3-(4-(ethylsulfonamido)-3-((4-fluorobenzyl)oxy)phenyl)-1H-pyrazole-4-carboxamide]", "values": [{"measurement": "Kd", "setting": "RIP1", "value": "> 30", "unit": "µM"}, {"measurement": "Kd", "setting": "RIP3", "value": "> 30", "unit": "µM"}]}]}
